{"source": "PubChem BioAssay AID1346428", "about": "(National Center for Advancing Translational Sciences (NCATS), 2018)", "note": "Where “and” joins values, the source holds several entries; their conditions need not be identical. Equal values may be shown once. Hit rate of the full screen: of about 48,000 compounds, about 1,200 (2.5%) were called active. Inconclusive results (about 2%) are left out.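 Rule for the calls: active = activation of at least 60% and not above a set upper limit (about 1 call in 100 departs from these limits); inconclusive = activation of 40% to 60%, or above that upper limit; inactive = activation under 40%.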 This is one part of the list.", "data": [{"molecular_target": "Probable G-protein coupled receptor 32 (Homo sapiens) (UniProt O75388)", "sequence (O75388 whole entry, looked up)": "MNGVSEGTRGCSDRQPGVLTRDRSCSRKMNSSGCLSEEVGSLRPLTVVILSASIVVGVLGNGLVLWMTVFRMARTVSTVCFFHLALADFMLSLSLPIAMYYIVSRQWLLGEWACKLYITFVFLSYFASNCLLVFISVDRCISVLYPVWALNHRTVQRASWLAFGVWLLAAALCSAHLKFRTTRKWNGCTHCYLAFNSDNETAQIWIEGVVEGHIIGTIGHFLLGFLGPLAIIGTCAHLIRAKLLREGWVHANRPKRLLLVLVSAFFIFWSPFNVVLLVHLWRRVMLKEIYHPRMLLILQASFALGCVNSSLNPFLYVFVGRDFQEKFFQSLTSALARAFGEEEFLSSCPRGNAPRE", "experiment": "qHTS for Agonists of Human Resolvin D1 Receptor DRV1; note: 0% is about no effect", "details": "CHO-K1 GPR32 beta-arrestin PathHunter luminescence, 90 min; at 76.9 µM; stronger effect = higher value; zero percent set by DMSO-only wells", "outline": "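Engineered CHO-K1 line co-expressing GPR32-ProLink and EA-beta-arrestin. Compound treatment lasted 90 min at 37 °C. Luminescence was recorded after 1 h with substrate at ambient temperature, relative to DMSO basal wells.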", "values": [{"smiles": "Cc1cc(C)c(NC(=O)Cn2nnc(-c3nc(-c4ccncc4)no3)c2N)c(C)c1", "activation": "inactive: -5.21%"}, {"smiles": "Cc1cccc(-c2nnn3c2nc(NCCC(C)C)c2ccccc23)c1", "activation": "inactive: -5.38%"}, {"smiles": "CCOc1ccc(C2c3c(oc4ccccc4c3=O)C(=O)N2Cc2ccc3c(c2)OCO3)cc1", "note": "(stereo not drawn)", "activation": "inactive: 8.4%"}, {"smiles": "Cc1ccc(Nc2c(-c3ccc(N4CCOCC4)cc3)nc3ccc(Cl)cn23)cc1", "activation": "inactive: -1.72%"}, {"smiles": "Cc1cc2c(cc1S(=O)(=O)N1CCC(C(N)=O)CC1)OCC(=O)N2", "activation": "inactive: 6.36%"}, {"smiles": "COc1cn(CC(=O)Nc2ccc(C)cc2C)c(CN2CCCCC2)cc1=O", "activation": "inactive: -7.72%"}, {"smiles": "COc1cccc(C(=O)Nc2ccc(-c3nc4ccc(C)cc4s3)cc2)c1OC", "activation": "inactive: -1.3%"}, {"smiles": "O=C(CSc1nc2c([nH]c3ccccc32)c(=O)n1-c1cccc(C(F)(F)F)c1)N1CCCC1", "activation": "inactive: -5.82%"}, {"smiles": "CCOC(=O)c1cccc(NC(=O)C2(S(=O)(=O)c3ccc(C)cc3)CC2)c1", "activation": "inactive: -0.321%"}, {"smiles": "CCCNC(=O)C1CCC(Cn2c(=O)c3sccc3n(CC(=O)N3CCCC(C)C3)c2=O)CC1", "note": "(stereo not drawn)", "activation": "inactive: 3.65%"}, {"smiles": "CCOc1cccc(C2c3c(oc4ccc(F)cc4c3=O)C(=O)N2CCOC)c1", "note": "(stereo not drawn)", "activation": "inactive: -2.3%"}, {"smiles": "COc1ccc(S(=O)(=O)NCC(c2ccc(N(C)C)cc2)N2CCCC2)cc1F", "note": "(stereo not drawn)", "activation": "inactive: -12.4%"}, {"smiles": "CC(=O)C1=C(c2ccc(C)cc2)N(C(C)=O)n2c(nnc2-c2ccccc2)S1", "activation": "inactive: -25.1%"}, {"smiles": "Cc1cccc(OCC(=O)NCC2(N3CCN(C)CC3)CCCCC2)c1", "activation": "inactive: -14.3%"}, {"smiles": "Cc1ccccc1Cn1cc(NC(=O)c2cc(-c3ccc(Cl)cc3)on2)cn1", "activation": "inactive: -2.58%"}, {"smiles": "Cc1ccc(Cl)cc1N1CCN(S(=O)(=O)c2ccc3oc(=O)c4ncn(C)c4c3c2)CC1", "activation": "inactive: -4.59%"}, {"smiles": "CCc1ccc(OCC(=O)Nc2ccc(Cl)c(-c3nc4cc(C)cc(C)c4o3)c2)cc1", "activation": "inactive: -4.76%"}, {"smiles": "Cc1cccc(NC(=O)CN2C(=O)COc3ccc(S(=O)(=O)Nc4ccccc4)cc32)c1C", "activation": "inactive: 32.8%"}, {"smiles": "Cc1[nH]c2ccc(C(=O)NCCc3ccccc3Cl)cc2c1C", "activation": "inactive: -2.54%"}, {"smiles": "Cc1ccc(S(=O)(=O)c2nnn3c2nc(NCc2ccc(F)cc2)c2sccc23)cc1C", "activation": "inactive: -19.8%"}, {"smiles": "CC(C)OCCCn1c(=O)c2ccccc2n2c(-c3ccc(F)c(F)c3)nnc12", "activation": "inactive: -33.7%"}, {"smiles": "CCCS(=O)(=O)N1CC(=O)N(c2ccccc2C)C(C)(C(=O)NC2CCCCC2)C1", "note": "(stereo not drawn)", "activation": "inactive: -0.428%"}, {"smiles": "Cc1nn(-c2ccc(N3CCCC3)nn2)c(C)c1CCC(=O)NCc1ccc(F)cc1", "activation": "inactive: -9.74%"}, {"smiles": "CCC1CN(C(=O)N2CCC(C(=O)NCc3ccc(C)o3)CC2)c2ccccc2O1", "note": "(stereo not drawn)", "activation": "inactive: -5.7%"}, {"smiles": "COc1ccccc1OCCn1c(NC(=O)c2ccccc2)nc2ccccc21", "activation": "inactive: -14.6%"}, {"smiles": "Cc1ccc(NC(=O)C2CCN(c3ncccn3)CC2)cc1F", "activation": "inactive: -8.22%"}, {"smiles": "O=C(O)CNC(=O)CNC(=O)CNC(=O)CSC(=O)c1ccccc1", "activation": "inactive: -1.76%"}, {"smiles": "CC1(C)S[C@@H]2[C@H](N=CN3CCCCCC3)C(=O)N2[C@H]1C(=O)O", "activation": "inactive: -19.4%"}, {"smiles": "CCOc1ccccc1NC(=O)C(C)n1nnc2sc3c(c2c1=O)CCCC3", "note": "(stereo not drawn)", "activation": "inactive: -7.78%"}, {"smiles": "COc1ccc(NC(=O)CSc2nc3ccccc3n2CC(=O)Nc2cccc(C)c2C)cc1", "activation": "inactive: -18.6%"}, {"smiles": "CCc1cc2cc(OC)c(OC)cc2c(Cc2ccccc2)n1", "activation": "inactive: 39.3%"}, {"smiles": "CCn1c(CNC(=O)C23CC4CC(CC(C4)C2)C3)nnc1SCC(=O)Nc1ccc(OC)cc1", "activation": "inactive: 6.37%"}, {"smiles": "O=C(COc1cccc(Cl)c1)N1CCC(c2nc3ccccc3s2)CC1", "activation": "active: 71.6%"}, {"smiles": "Cc1ccc(CCNC(=O)c2ccc(Cn3c(=O)c4cccn4c4cccnc43)cc2)cc1", "activation": "inactive: -20.2%"}, {"smiles": "Cc1ccc(-n2c(SCC(N)=O)nc3c(oc4ccccc43)c2=O)cc1", "activation": "inactive: -4.73%"}, {"smiles": "COc1cc(OC)c(NC(=O)Nc2sc3nc4n(c(=O)c3c2C)CCC(C)CC4)cc1Cl", "note": "(stereo not drawn)", "activation": "inactive: 10.5%"}, {"smiles": "O=S(=O)(Nc1ccc(-c2ccc(N3CCCC3)nn2)cc1)c1ccccc1Cl", "activation": "inactive: 7.61%"}, {"smiles": "O=C(O)c1cccc(NC(=O)c2cccc(S(=O)(=O)Nc3cccc(F)c3)c2)c1", "activation": "inactive: -6.5%"}, {"smiles": "Cc1cc(C)cc(NC(=O)c2cc(S(=O)(=O)N3CCOCC3)cn2C)c1", "activation": "inactive: -15%"}, {"smiles": "COc1cccc(C(=O)Nc2ccccc2SCc2cc(=O)c3cccc(C)c3[nH]2)c1", "activation": "inactive: 13.2%"}, {"smiles": "Cc1ccc(N2CCN(c3nc4ccccc4n4nnnc34)CC2)c(C)c1", "activation": "inactive: -8.23%"}, {"smiles": "N#Cc1c[nH]n2c(NC3CCCC3)c(-c3ccc(Br)cc3)nc12", "activation": "inactive: -2.6%"}, {"smiles": "Cc1ccc(Cl)cc1N1CCN(C(=O)c2cnn(-c3ccc(Cl)cc3)c2C2CCNCC2)CC1", "activation": "inactive: -15.8%"}, {"smiles": "CCc1nn2c(=O)cc(COC(=O)c3cccs3)nc2s1", "activation": "inactive: 15.1%"}, {"smiles": "CCOc1ccccc1CNC(=O)c1ccc2nc(CCc3ccccc3)oc2c1", "activation": "inactive: -5.76%"}, {"smiles": "N#Cc1nc(/C=C/c2ccc(F)cc2)oc1N1CCCCC1", "activation": "inactive: 4.74%"}, {"smiles": "CC(Oc1ccccc1)C(=O)Nc1ccc(C(=O)OCc2cc(=O)n3ccsc3n2)cc1", "note": "(stereo not drawn)", "activation": "inactive: 6.82%"}, {"smiles": "Cc1cccc(C(=O)NCC(=O)OCc2cc(=O)n3nc(C)sc3n2)c1", "activation": "inactive: -9.44%"}, {"smiles": "COC(=O)c1ccc(CN(Cc2ccc(OC)c(OC)c2)S(=O)(=O)c2ccc(F)c(C(=O)Nc3cc(C)ccc3C)c2)cc1", "activation": "inactive: -12.1%"}, {"smiles": "C[C@]12CCC(=O)C=C1CC[C@@H]1[C@@H]2C(=O)C[C@@]2(C)[C@H]1CC[C@]2(O)C(=O)CO", "activation": "inactive: -16.2% and inactive: -13.6%"}, {"smiles": "CCOc1ccccc1NC(=O)CN1Cc2ccccc2C1=O", "activation": "inactive: -13.7%"}, {"smiles": "Cc1cc(-c2ccccc2)nc2cc(C(=O)Nc3cc(C(F)(F)F)ccc3Cl)nn12", "activation": "inactive: -7.21%"}, {"smiles": "COc1ccc(CNC(=O)c2ccc3c(Cl)c4c(nc3c2)CCCC4)c(OC)c1", "activation": "inactive: -1.05%"}, {"smiles": "CCOC(=O)c1ccc(NC(=O)Cn2cc(S(=O)(=O)Cc3ccccc3F)c3ccccc32)cc1", "activation": "inactive: -2.47%"}, {"smiles": "CCCOc1ccccc1C(=O)Nc1ccc(-c2nc3ccc(C)cc3s2)cc1", "activation": "inactive: 4.12%"}, {"smiles": "Cc1ccc(Cn2cc3c(n2)-c2c(oc(C(=O)Nc4ccc(F)cc4F)c2C)CC3)cc1", "activation": "inactive: -21%"}, {"smiles": "Cc1nc(SCC(=O)Nc2ccc(Cl)cc2C(F)(F)F)[nH]c(=O)c1Cc1ccccc1", "activation": "inactive: 13.7%"}, {"smiles": "CCn1cc(C(=O)NCCCOC(C)C)c(=O)c2cc(S(=O)(=O)N(C)C3CCCCC3)ccc21", "activation": "inactive: 3.09%"}, {"smiles": "CCN(Cc1ccccc1)Cc1c(O)ccc2c(=O)c(-c3ccccc3Cl)coc12", "activation": "inactive: -2.98%"}, {"smiles": "COCCCC/C(=N\\OCCN)c1ccc(C(F)(F)F)cc1", "activation": "inactive: -3.83% and inactive: -1.42%"}, {"smiles": "COc1cc(OC)c(NC(=O)CSCc2nc(-c3ccc(OC)c(OC)c3)no2)cc1Cl", "activation": "inactive: -15.8%"}, {"smiles": "CC(=O)c1cccc(NC(=O)c2ccc3c(c2)c(C)c(C)n3Cc2ccc(Cl)cc2)c1", "activation": "inactive: -14.9%"}, {"smiles": "O=C(NCc1ccccc1)c1ccc(Cn2c(=O)c3cccn3c3cccnc32)cc1", "activation": "inactive: 3.71%"}, {"smiles": "Cc1ccc(C)c(N2CCN(S(=O)(=O)c3ccc4c(c3)n(C)c(=O)c(=O)n4C)CC2)c1", "activation": "inactive: -2.82%"}, {"smiles": "O=C(Nc1cc(-c2nc3cc(Cl)ccc3o2)ccc1Cl)c1cc2ccccc2o1", "activation": "inactive: -5.18%"}, {"smiles": "CN(Cc1ccccc1)S(=O)(=O)c1ccc(F)c(C(=O)Nc2cc(Cl)cc(Cl)c2)c1", "activation": "inactive: -20.5%"}, {"smiles": "O=C(Cn1c(=O)n(Cc2ccc(F)cc2)c(=O)c2sc3ccccc3c21)NCc1ccccc1", "activation": "inactive: 12.8%"}, {"smiles": "O=C(Nc1cccc(-c2nc3cc(Cl)ccc3o2)c1)c1ccc(F)cc1", "activation": "inactive: 6.08%"}, {"smiles": "NC(=O)N[C@@H](CCC(=O)O)C(=O)O", "activation": "inactive: 11.2%"}, {"smiles": "Cc1ccc(OCCSc2nc3ccccc3n2CC(=O)N2CCCCC2)c(C)c1", "activation": "inactive: -15%"}, {"smiles": "Cc1nc2ccc(S(=O)(=O)N(CC(=O)Nc3cccc(C)c3C)Cc3ccccc3)cc2s1", "activation": "inactive: -4.8%"}, {"smiles": "Cc1ccc(C)c(Cn2c(C(C)NC(=O)c3ccccc3)nc3ccccc32)c1", "note": "(stereo not drawn)", "activation": "inactive: -1.08%"}, {"smiles": "Cc1ccc(NC(=O)C2CCC(CNS(=O)(=O)c3cccc4nsnc34)CC2)c(C)c1", "note": "(stereo not drawn)", "activation": "inactive: -12.2%"}, {"smiles": "COc1ccc(-c2nc3sc(CCNC(=O)C(=O)Nc4ccc(C)cc4C)c(C)n3n2)cc1", "activation": "inactive: -9.89%"}, {"smiles": "O=C(CSC1=Nc2ccccc2C2=NC(Cc3ccccc3)C(=O)N12)Nc1ccccc1", "note": "(stereo not drawn)", "activation": "inactive: -29.3%"}, {"smiles": "O=C(NCc1noc2ccccc12)N1CCN(c2ccccc2F)CC1", "activation": "inactive: -4.52%"}, {"smiles": "O=C(CCn1cnc2onc(-c3ccc(F)cc3)c2c1=O)N1CCN(c2ccccc2)CC1", "activation": "inactive: 15.8%"}, {"smiles": "COc1cccc(OCc2nc3ccccc3n2C)c1", "activation": "inactive: -15.9%"}, {"smiles": "CCOc1cccc2cc(-c3nc(-c4ccc(Cl)cc4)c(C)s3)c(=O)oc12", "activation": "inactive: -0.443%"}, {"smiles": "Cc1nc(N2CCOCC2)c2c(C(=O)N3CCN(c4ccc(Cl)cc4)CC3)c(C)oc2n1", "activation": "inactive: -17.3%"}, {"smiles": "COc1ccc(Cn2c(CCC(=O)Nc3cccc(Cl)c3)nc3cccnc32)cc1", "activation": "inactive: 6.7%"}, {"smiles": "COc1ccc(-c2ccc(NS(=O)(=O)c3ccccc3Cl)cc2)nn1", "activation": "inactive: -15.8%"}, {"smiles": "COc1ccc(-c2nsc(NC(=O)c3cccc(OC)c3)n2)cc1", "activation": "inactive: 26.3%"}]}]}
